± gives the standard deviation of the averaged measurements. Some of the results follow.
Test system: PfAP2-G AP2 domain (GST-tagged)
Experiment: gcPBM binding intensity (ln(normalized median fluorescence intensity)); higher = stronger DNA binding
Procedure, shortened: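 Binding intensity values are the highest Masliner-normalised natural-log median intensity among replicate spots of either probe orientation. The binding step lasted 1 h in 1× PBS with 1% milk, 0.2 mg/ml BSA, 0.5% salmon testes DNA and 0.03% Triton X-100, using GST-tagged P. falciparum DNA-binding domains expressed in E. coli on an Agilent 4 × 180k array of primer-extended double-stranded 36-bp intergenic genomic probes plus negative controls. Alexa488 anti-GST antibody and a 488 nm scan detected bound protein.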

Sequence	gcPBM binding intensity (ln)
TAATTCTTGTAAAATGTGCGCAGTAGATATAGTTTT	10.3 ± 0.14
AGATATAAGAAAAGCACACACACACTAGAAAAAAAA [CACACA_site5559]	10.1 ± 0.11
TTGCAAAATTGTTTTATCACAAATATATACTTAATA [CACACA_negctrl_site403]	9.88 ± 0.16
TATAAAAGTGGACACACACACATATATATATATATA [CACACA_site4673]	11.3 ± 0.82
ACACATCAAATATAAAAAAAAAATAACTATAAATAA [CACACA_negctrl_site587]	9.655 ± 0.007
CCTTTAAGCAAAAACACACACACATATTTATTTATA [CACACA_site6294]	9.99 ± 0.14
AATTTTTTTTTTTTGTTGCACTTTTAGAGTTTTAAT [GTGCAC_site9519]	10.2 ± 0.38
TAATAAATAGGACACACACACATATTTATATATCAT [CACACA_site6771]	10.9 ± 0.63
TATATATATATGTATGCATGTTGTTTTTTATTTAAT [TGCATGCA_site343]	10 ± 0.61
CTATATTTCGTTGGACGTACAAATGTGATAATTAGG [XGTACX_site3232]	11.6 ± 0.91
TTATTATTTGGTTATAGTACATAATATAATATATAT [XGTACX_site6911]	11 ± 0.72
ACATATGTATAATATGCACACGTCATTTTCCCCTTA [CACACA_site5194]	10.05 ± 0.064
ACTAAACTTATATGTACACACATATAACATTAATTT [CACACA_site2258]	11.5 ± 1.1
TTTCTTTTTTCACGTGCATGCCATTTAAGTATTAAT [TGCATGCA_site651]	10.4 ± 0.21
TTTGTTTGGTTTTGGTGTACTTTTTTTTTTTTTTCT [XGTACX_site2050]	11.6 ± 1
GAATTATAAGAATAAACACACAAGCTTAAAAAAAAA [CACACA_site1204]	9.74 ± 0.18
AGAATTCAACAATGTTGTACATACACACACACAAAA [XGTACX_site5035]	11.3 ± 0.8
ATATGGCATATTTGTATTATACATACATATGTATCT [TGCATGCA_negctrl_site562]	10.1 ± 0.31
AAATTATAATATAATACACACATAAAAAAAAAAAAA [CACACA_site7]	9.79 ± 0.38
TTATTATTCAAGAGGAGTACATTATGTGTATAATAT [XGTACX_site4995]	11.5 ± 1
TATATTTAGAGAGAGACACACAAAGGGACTTACACA [CACACA_site2545]	10.5 ± 0.3
ATGTATTTATTTTAACGTACAAGATATTATTATTAT [XGTACX_site4609]	11.1 ± 0.83
AAATTATATATGATGTGTACATAAATATATACACAT [XGTACX_site8761]	11.4 ± 0.83

Sequence	gcPBM binding intensity (ln)
TTTCCCTCAAATAAAGTGCATTATGATTTTAATTTA	9.84 ± 0.12
CTAATTGTGTATACCTGTACATATATATATATATAT [XGTACX_site416]	11 ± 0.53
TGTTATTCTACATATACACACAAATAACAATTTAAA [CACACA_site1824]	10 ± 0.21
AAAAAAAAAAAGAACACACACAGTGCACATTCGGTG [CACACA_site788]	10.6 ± 0.26
AATACAAAAAAAGGTACACACATAATATATTTATTA [CACACA_site2628]	11.3 ± 0.87
TTAACTTTTTTATATGCACACATAAACAAGGATATA [CACACA_site8932]	10.2 ± 0.28
ATAATATATATATATATATTATCAAATATATATATA [GTGCAC_negctrl_site346]	9.55 ± 0.23
TCCACTTAACTCAATTGTACAAAAATAAAAATTAAA [XGTACX_site855]	10.9 ± 0.67
TTTTATGCGCAATAAGTGCATTTAAAATATATATAT	10.2 ± 0.31
GTAATATGTATCCATACACACATACAGTTTATTTGC [CACACA_site6540]	10.3 ± 0.27
TGTGTATATCGATAAAGTACATTTGAAAAGTGACTT [XGTACX_site6957]	11.1 ± 0.69
TTTTTATATTTTACATGTACATAAATATATTATATA [XGTACX_site958]	11.4 ± 0.82
AATAATGAATTGAAATGTACATATTTTTATTAATAC [XGTACX_site8899]	11 ± 0.42
ATCACCAAATGGGCTATACAACAATGAGAAATGGTA [CACACA_negctrl_site48]	10.1 ± 0.18
TTCACATGAAGAATTAAAATAAAACTAGGAAATTAA [CACACA_negctrl_site1047]	9.72 ± 0.13
AAAAAAAACGGACACACACACATTCAATATAAAACA [CACACA_site4189]	11.3 ± 0.96
GTATTAATATATAATTGTACTTTTTTTTTTTTTTTT [XGTACX_site4369]	11.6 ± 1
TTTTTCATAAAACACACACACAAAAATAATGTGGAA [CACACA_site3687]	10.2 ± 0.18
AATATAATATAATATAGTACGTAAAAATATTATACA [XGTACX_site2170]	11.2 ± 0.91
ATACGAAGAAATGTTCATTTATTTCGAACATTTAAT [CACACA_negctrl_site1481]	9.735 ± 0.064
AATAATATATGGACATGTACATAATATATATTTTTT [XGTACX_site312]	11.2 ± 0.56
TCAAATGTGTAATCTTGTACACATTAAAAGAAAAAA [XGTACX_site8822]	11.2 ± 0.83
